Hit rate of the full screen: of about 150,000 compounds, about 540 (0.36%) showed an effect of 50% or more. This is one part of the list.

The subject of the assay is Plasmodium falciparum. In words: Primary screen in NF54 nanoGlo assay, in single point, at 2uM, 72h; a lower Z score goes with more inhibition. In kind it is functional, Erythrocyte. The conditions noted are these: timepoint 72 hour.
As to `COc1ccc(C(=O)CN2CCC(COCc3ccc(C#N)cc3)CC2)cc1`, the “% Inhibition” value is -12% and the Z score stood at 1.36.
For `COCCCN1C(=O)c2ccc(C(=O)Nc3ccc(Oc4ccc(OC)cc4)cc3)cc2C1=O`, in that order: -3% and 0.47.
For `CCN(Cc1ccco1)C(=O)N[C@H]1CCS(=O)(=O)C1`, in that order: -9% and 1.61.
On the same counts, the results for `CNc1nnc(Cc2csc(NC(=O)c3cc4c(nc3OC)CCC4)n2)s1` are -21% and 2.26.
As for `O=C(N[C@H]1CCCN(CCCc2ccccc2)C1)c1c[nH]c2ncnn2c1=O`, the “% Inhibition” value is recorded as 9% and the Z score was -1.24.
For `CCOc1cc(CN[C@H](C(N)=O)[C@@H](C)O)c(Cl)cc1OC(C)C`, in that order: -17% and 2.49.
For `CCC[C@H](C)c1nc(N2CCCN(C(=O)c3ccccc3C)CC2)c2c(C)nn(-c3ccc(F)cc3)c2n1`, in that order: -5% and 0.62.
For `C[C@H]1CN(C(=O)c2cc3sccc3[nH]2)CC2(CCC2)O1`, in that order: 2% and -0.35.
As for `Cc1ccc([C@@H]2Cn3cnc(C(=O)N4CCC(C(=O)NCCC5=CCCCC5)CC4)c3CO2)cc1`, the “% Inhibition” value was -19% and the Z score was found to be 1.77.
As to `CN1CCCC1CCN1CCC[C@@H](NC(=O)OC(C)(C)C)C1` (some centres not stated), the “% Inhibition” value was -6% and the Z score is listed as 0.78.
Take `CC(C)c1nnc(Cn2nnc(-c3ccncn3)n2)s1`: the “% Inhibition” value was 39% and the Z score is recorded as -7.06.
For `COc1ccc2ncn([C@H]3C[C@H]4CC[C@@H]3C4)c(=O)c2c1`, in that order: -2% and 0.28.
On the same counts, the results for `CC1CN(C(C)C)CC1NC(=O)N1Cc2ccccc2[C@@H]1C` (some centres not stated) are -12% and 2.12.
For `Cn1nccc1C1CC2CCC(C1)N2S(=O)(=O)c1ccoc1` (configuration not stated), in that order: 11% and -2.06.
On to `O=C(O)[C@@H]1CN(c2ncccn2)CCN(C2Cc3ccccc3C2)C1`, for which the “% Inhibition” value is -1% and the Z score turned out to be 0.12.
On the same counts, the results for `O=C(Nc1ccc(N2CCN(Cc3cccc(Oc4ccccc4)c3)CC2)nc1)c1ccccc1F` are -8% and 1.22.
For `O=C(c1ccnc(-c2ccc(F)c(F)c2)c1)N1CCOCC1`, in that order: -5% and 0.94.
On the same counts, the results for `COC1CC(CN(C)[C@@H]2COC[C@H]2O)N(C(=O)OC(C)(C)C)C1` (some centres not stated) are -7% and 0.67.
With `O=C(NC1CC1)c1coc(CN(Cc2ccccc2)Cc2cccc(Cl)c2Cl)n1`, the “% Inhibition” value stood at 1% and the Z score is listed as -0.23.
`N#CCC1(O)CN(Cc2cscn2)C1`: the “% Inhibition” value was -8% and the Z score stood at 1.19.
On to `COc1ccsc1C(=O)N(CCc1nccs1)C(C)C`, for which the “% Inhibition” value is listed as -2% and the Z score is 0.23.
Regarding `COCCC(=O)N1CCN(C(=O)c2cscc2C)CC1`, the “% Inhibition” value is 5% and the Z score is given as -0.67.
For `NC(=O)c1ccc(S(=O)(=O)NC(=O)[C@H]2CC[C@H](c3ccccc3)C2)s1`, in that order: -5% and 0.42.
For `Cc1cc2n(n1)C(C(F)(F)F)CCN2C(=O)C(C)N1C(=O)C2CCCCC2C1=O` (configuration not stated), in that order: 34% and -4.9.
For `COc1ccc(-c2noc(CN3CCC(C(=O)N4CCCC4)CC3)n2)cc1OC`, in that order: -2% and 0.35.
Consider `COc1cc(NC(=O)N2CCC[C@H]2c2cc(C(C)C)no2)cc(OC)c1OC`, for which the “% Inhibition” value is -1% and the Z score was 0.12.
On the same counts, the results for `Cc1nc(CC(=O)Nc2nc(C)c(C)s2)cs1` are -7% and 1.17.
On the same counts, the results for `C[C@@H](c1ccccc1)N(Cc1ccc(Cl)c(Cl)c1)Cc1nc(C(=O)NC2CC2)co1` are -9% and 1.09.
On to `O=C(NCc1cccnc1Oc1ccc(F)c(F)c1)C1CCOCC1`, for which the “% Inhibition” value is -3% and the Z score stood at 0.53.
On the same counts, the results for `Cc1nnc(CNC(CC2CCOC2)c2ccccc2)s1` (configuration not stated) are -10% and 1.62.
On the same counts, the results for `COc1ccc(NC(=O)c2ccc(-n3c(N)c(C#N)c4nc5ccccc5nc43)cc2)cc1` are -3% and 0.46.
For `OC[C@H]1CCCN(CCNCc2ccc3cc(Cl)ccc3n2)C1`, in that order: -6% and 0.96.
`CCOCCOC(=O)c1nc2ccccc2nc1Nc1ccc(OC)c(Cl)c1`: the “% Inhibition” value turned out to be 0% and the Z score was -0.01.
On the same counts, the results for `C#CCOc1cccc(NC(=O)C(=O)NCc2nccs2)c1` are -12% and 1.55.
On the same counts, the results for `CC(C)=CCCN1CC[C@H](NC(=O)c2ccccc2)[C@@H](O)C1` are -5% and 1.
On the same counts, the results for `CCO[C@H](C(=O)N1CCc2c(cnn2-c2ccccc2)C1)C(C)C` are 0% and 0.02.
Regarding `COc1ccc(NC(=O)CCc2c(C)nn(-c3cc(N4CCCC4)ncn3)c2C)c(OC)c1`, the “% Inhibition” value was -9% and the Z score is reported as 1.86.
For the compound `O=C1NCCN1CCNc1cc(C2CC2)ncn1`, the “% Inhibition” value amounted to 2% and the Z score is listed as -0.18.
As to `CC(C)=CCN1CCN(Cc2cccc3ccccc23)[C@H]2CS(=O)(=O)C[C@H]21`, the “% Inhibition” value is listed as -5% and the Z score was found to be 0.57.
Regarding `O=C(NCC1(N2CCOCC2)CCCCC1)c1nc2n(n1)-c1ccccc1S(=O)(=O)N2`, the “% Inhibition” value is reported as -7% and the Z score was determined as 1.13.
For the compound `Cc1ncsc1C(=O)N(C)C1CN(c2ccc3nnc(C4CCC4)n3n2)C1`, the “% Inhibition” value is recorded as -14% and the Z score was 2.

In general, % Inhibition refers to the change of the read-out against control, counted positive when it falls.

The values above are taken from ChEMBL document CHEMBL4888484, “Replenishing the malaria drug discovery pipeline: Screening and hit evaluation of the MMV Hit Generation Library 1 (HGL1) against asexual blood stage Plasmodium falciparum ,using a nano luciferase reporter read-out” (2022).
